Measured values: the supplement of paper PMC11741623
The list shows a part of the results. Interaction screen of human proteins with wild-type SARS-CoV-2 proteins by split-DHFR complementation in yeast, 1 µg/mL methotrexate. Value = fitness of the pair (three or more lineages) minus that of the viral protein without a human partner, on a scale set by negative (0) and fused positive (1) controls, mean of up to three cultures; higher = more likely to interact. Active = false discovery rate below 0.05 (one-sided t-test) in at least one culture. Nearly all pairs are not hits, and differences among them are mostly noise (correlation between cultures about 0.3); most hits were seen in one culture only. Human sequences are the Swiss-Prot entries looked up by gene name; the clone may be another isoform. NSP2 values were corrected by the authors for a growth advantage. Listed are human proteins with a hit and a random twelfth of the others.

Experiments:
Assay in all cases: yeast fitness gain over the viral ORF with no human partner (scaled fitness); higher = more likely to interact
SARS-CoV-2 M = molecular target: SARS-CoV-2 M
Experimental: (§1)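 Split mouse DHFR complementation in pooled diploid yeast: human ORFeome clones carry one fragment and viral ORFs the other; barcoded lineages compete in 1 µg/mL methotrexate and fitness is read by barcode sequencing in up to three cultures.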

SARS-CoV-2 N = molecular target: SARS-CoV-2 N
Experimental: as §1

SARS-CoV-2 NSP10 = molecular target: SARS-CoV-2 NSP10
Experimental: as §1

SARS-CoV-2 NSP12 = molecular target: SARS-CoV-2 NSP12
Experimental: as §1

SARS-CoV-2 NSP13 = molecular target: SARS-CoV-2 NSP13
Experimental: as §1

SARS-CoV-2 NSP14 = molecular target: SARS-CoV-2 NSP14
Experimental: as §1

SARS-CoV-2 NSP16 = molecular target: SARS-CoV-2 NSP16
Experimental: as §1

SARS-CoV-2 NSP2 = molecular target: SARS-CoV-2 NSP2
Experimental: as §1

SARS-CoV-2 NSP4 = molecular target: SARS-CoV-2 NSP4
Experimental: as §1

SARS-CoV-2 NSP5 = molecular target: SARS-CoV-2 NSP5
Experimental: as §1

SARS-CoV-2 NSP6 = molecular target: SARS-CoV-2 NSP6
Experimental: as §1

SARS-CoV-2 NSP8 = molecular target: SARS-CoV-2 NSP8
Experimental: as §1

SARS-CoV-2 ORF10 = molecular target: SARS-CoV-2 ORF10
Experimental: as §1

SARS-CoV-2 ORF3B = molecular target: SARS-CoV-2 ORF3B
Experimental: as §1

SARS-CoV-2 ORF6 = molecular target: SARS-CoV-2 ORF6
Experimental: as §1

SARS-CoV-2 ORF7A = molecular target: SARS-CoV-2 ORF7A
Experimental: as §1

SARS-CoV-2 ORF7B = molecular target: SARS-CoV-2 ORF7B
Experimental: as §1

SARS-CoV-2 ORF8 = molecular target: SARS-CoV-2 ORF8
Experimental: as §1

SARS-CoV-2 ORF9B = molecular target: SARS-CoV-2 ORF9B
Experimental: as §1

SARS-CoV-2 NSP1 = molecular target: SARS-CoV-2 NSP1
Experimental: as §1

SARS-CoV-2 NSP15 = molecular target: SARS-CoV-2 NSP15
Experimental: as §1

SARS-CoV-2 NSP7 = molecular target: SARS-CoV-2 NSP7
Experimental: as §1

SARS-CoV-2 NSP9 = molecular target: SARS-CoV-2 NSP9
Experimental: as §1

SARS-CoV-2 ORF3A = molecular target: SARS-CoV-2 ORF3A
Experimental: as §1

[1] = molecular target: SARS-CoV-2 ORF9Bwu (the 73-codon ORF)
Experimental: as §1

SARS-CoV-2 S = molecular target: SARS-CoV-2 S
Experimental: as §1

Measured: yeast fitness gain

B1: IL25, Q9H293 (protein)
chain: MRERPRLGEDSSLISLFLQVVAFLAMVMGTHTYSHWPSCCPSKGQDTSEELLRWSTVPVPPLEPARPNRHPESCRASEDGPLNSRAISPWRYELDRDLNRLPQDLYHARCLCPHCVSLQTGSHMDPRGNSELLYHNQTVFYRRPCHGEKGTHKGYCLERRLYRVSLACVCVRPRVMG
inactive: SARS-CoV-2 M 0.0512 | SARS-CoV-2 N 0.223 | SARS-CoV-2 NSP10 = 0.00664 | SARS-CoV-2 NSP12 = 0.0218 | SARS-CoV-2 NSP13 = -0.00396 | SARS-CoV-2 NSP14 = -0.0622 | SARS-CoV-2 NSP16 = 0.0762 | SARS-CoV-2 NSP2 = -0.00308 | SARS-CoV-2 NSP4 = 0.0125 | SARS-CoV-2 NSP5 = 0.0427 | SARS-CoV-2 NSP6 = 0.00991 | SARS-CoV-2 NSP8 = 0.033 | SARS-CoV-2 ORF10 = -0.0117 | SARS-CoV-2 ORF3B -0.0129 | SARS-CoV-2 ORF6 = 0.0602 | SARS-CoV-2 ORF7A -2e-05 | SARS-CoV-2 ORF7B -0.085 | SARS-CoV-2 ORF8 = -0.0297 | SARS-CoV-2 ORF9B 0.0283

B2: FAM89B, Q8N5H3 (protein)
chain: MNGLPSAEAPGGAGCALAGLPPLPRGLSGLLNASGGSWRELERVYSQRSRIHDELSRAARAPDGPRHAAGAANAGPAAGPRRPVNLDSALAALRKEMVGLRQLDMSLLCQLWGLYESIQDYKHLCQDLSFCQDLSSSLHSDSSYPPDAGLSDDEEPPDASLPPDPPPLTVPQTHNARDQWLQDAFHISL
inactive: SARS-CoV-2 M 0.0324 | SARS-CoV-2 N 0.016 | SARS-CoV-2 NSP1 = 0.0625 | SARS-CoV-2 NSP10 = -0.0158 | SARS-CoV-2 NSP12 = 0.052 | SARS-CoV-2 NSP13 = -0.0923 | SARS-CoV-2 NSP15 = 0.0291 | SARS-CoV-2 NSP16 = 0.0374 | SARS-CoV-2 NSP2 = -0.182 | SARS-CoV-2 NSP5 = -0.147 | SARS-CoV-2 NSP6 = -0.066 | SARS-CoV-2 NSP7 = 0.0149 | SARS-CoV-2 NSP8 = -0.0039 | SARS-CoV-2 NSP9 = -0.0224 | SARS-CoV-2 ORF10 = 0.000941 | SARS-CoV-2 ORF3A 0.0335 | SARS-CoV-2 ORF3B 0.0461 | SARS-CoV-2 ORF6 = -0.0573 | SARS-CoV-2 ORF7A -0.0652 | SARS-CoV-2 ORF7B -0.00299 | SARS-CoV-2 ORF8 = -0.0384 | SARS-CoV-2 ORF9B 0.0685 | [1] -0.144 | SARS-CoV-2 S -0.1

B3: ACADS, P16219 (protein)
chain: MAAALLARASGPARRALCPRAWRQLHTIYQSVELPETHQMLLQTCRDFAEKELFPIAAQVDKEHLFPAAQVKKMGGLGLLAMDVPEELGGAGLDYLAYAIAMEEISRGCASTGVIMSVNNSLYLGPILKFGSKEQKQAWVTPFTSGDKIGCFALSEPGNGSDAGAASTTARAEGDSWVLNGTKAWITNAWEASAAVVFASTDRALQNKGISAFLVPMPTPGLTLGKKEDKLGIRGSSTANLIFEDCRIPKDSILGEPGMGFKIAMQTLDMGRIGIASQALGIAQTALDCAVNYAENRMAFGAPLTKLQVIQFKLADMALALESARLLTWRAAMLKDNKKPFIKEAAMAKLAASEAATAISHQAIQILGGMGYVTEMPAERHYRDARITEIYEGTSEIQRLVIAGHLLRSYRS
inactive: SARS-CoV-2 M 0.0204 | SARS-CoV-2 N 0.0838 | SARS-CoV-2 NSP1 = -0.171 | SARS-CoV-2 NSP10 = 0.0232 | SARS-CoV-2 NSP12 = 0.0144 | SARS-CoV-2 NSP13 = 0.028 | SARS-CoV-2 NSP14 = -0.359 | SARS-CoV-2 NSP15 = -0.0151 | SARS-CoV-2 NSP16 = -0.0533 | SARS-CoV-2 NSP2 = -0.0843 | SARS-CoV-2 NSP5 = -0.0282 | SARS-CoV-2 NSP6 = 0.0607 | SARS-CoV-2 NSP7 = 0.0368 | SARS-CoV-2 NSP8 = -0.0275 | SARS-CoV-2 NSP9 = 0.0309 | SARS-CoV-2 ORF10 = -0.0278 | SARS-CoV-2 ORF3B 0.0243 | SARS-CoV-2 ORF6 = -0.0528 | SARS-CoV-2 ORF7A 0.00674 | SARS-CoV-2 ORF7B -0.00702 | SARS-CoV-2 ORF8 = 0.0288 | SARS-CoV-2 ORF9B 0.0346 | [1] 0.086 | SARS-CoV-2 S -0.0606
